# Laboratory results as given in patent publication US20250223331A1, “GLP-1/GIP DUAL-TARGETED POLYPEPTIDE AND FUSION PROTEIN AND APPLICATIONS THEREOF” (SUNSHINE LAKE PHARMA CO., LTD., priority 2021, published 2025).
# Experiments:
# GLP-1R = GLP-1R (UniProt P43220); test: cell-based or functional assay
# GIPR = target: T1, GIPR (UniProt P48546 22-466, limits assumed); test: cell-based or functional assay
# T1 sequence (looked up): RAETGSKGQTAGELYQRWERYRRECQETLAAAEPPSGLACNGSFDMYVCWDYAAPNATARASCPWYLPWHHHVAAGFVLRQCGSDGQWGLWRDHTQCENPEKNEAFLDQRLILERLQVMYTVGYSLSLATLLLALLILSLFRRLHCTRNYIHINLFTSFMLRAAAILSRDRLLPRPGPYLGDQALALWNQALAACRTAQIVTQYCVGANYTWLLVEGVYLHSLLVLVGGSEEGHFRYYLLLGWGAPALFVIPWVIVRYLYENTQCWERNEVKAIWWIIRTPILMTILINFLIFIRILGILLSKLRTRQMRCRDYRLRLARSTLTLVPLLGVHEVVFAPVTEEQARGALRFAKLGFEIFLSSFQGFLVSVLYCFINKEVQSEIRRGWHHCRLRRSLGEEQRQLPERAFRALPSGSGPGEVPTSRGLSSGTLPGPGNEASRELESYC
Binder,"EC50, cAMP (GLP-1R) [nM]","EC50, cAMP (GIPR) [nM]"
HEC-G125 (Fc fusion) YSEGTFTSDYSILLDKIAQRAFVQWLIAGGPSSGAPPPSGGGGSGGGGSGGGGSA[here human IgG4 Fc with S228P F234A L235A (EU numbers) without letters],0.354,0.057
HEC-G03 (Fc fusion) YGEGTFTSDYSIALDKQAAKEFVNWLLAGGPSSGAPPPSGGGGSGGGGSGGGGSA[here human IgG4 Fc with S228P F234A L235A (EU numbers) without letters],4.05,2.42
HEC-G07 (Fc fusion) YGEGTFTSDYSIALDKIAQKAFVQWLIAGGPSSGAPPPSGGGGSGGGGSGGGGSA[here human IgG4 Fc with S228P F234A L235A (EU numbers) without letters],1.06,4.83
HEC-G09 (Fc fusion) YGEGTFTSDYSIALDKIAAKAFVQWLIAGGPSSGAPPPSGGGGSGGGGSGGGGSA[here human IgG4 Fc with S228P F234A L235A (EU numbers) without letters],0.165,18.8
HEC-G126 (Fc fusion) YGEGTFTSDYSILLDKIAQREFIEWLLAGGPSSGAPPPSGGGGSGGGGSGGGGSA[here human IgG4 Fc with S228P F234A L235A (EU numbers) without letters],0.965,0.015
HEC-G22 (Fc fusion) YGEGTFTSDYSIYLDKKAQRDFVEWLVKGGPSSGAPPPSGGGGSGGGGSGGGGSA[here human IgG4 Fc with S228P F234A L235A (EU numbers) without letters],0.165,2.58
HEC-G130 (Fc fusion) YSEGTFTSDYSILLDKKAQRDFVQWLIAGGPSSGAPPPSGGGGSGGGGSGGGGSA[here human IgG4 Fc with S228P F234A L235A (EU numbers) without letters],0.052,0.318
HEC-G06 (Fc fusion) YGEGTFTSDYSIYLDKKAQRDFVEWLLAQGPSSGAPPPSGGGGSGGGGSGGGGSA[here human IgG4 Fc with S228P F234A L235A (EU numbers) without letters],1.59,0.585
HEC-G137 (Fc fusion) YSEGTFTSDYSILLDKKAQQDFIEWLIAGGPSSGAPPPSGGGGSGGGGSGGGGSA[here human IgG4 Fc with S228P F234A L235A (EU numbers) without letters],0.357,0.021
HEC-G02 (Fc fusion) YGEGTFTSDYSIYLDKQAAKEFVNWLLAGGPSSGAPPPSGGGGSGGGGSGGGGSA[here human IgG4 Fc with S228P F234A L235A (EU numbers) without letters],0.451,16.1
HEC-G136 (Fc fusion) YSEGTFTSDYSILLDKKAQQDFIEWLLAGGPSSGAPPPSGGGGSGGGGSGGGGSA[here human IgG4 Fc with S228P F234A L235A (EU numbers) without letters],8.22,0.018
HEC-G129 (Fc fusion) YSEGTFTSDYSILLDKKAQRDFIEWLIAGGPSSGAPPPSGGGGSGGGGSGGGGSA[here human IgG4 Fc with S228P F234A L235A (EU numbers) without letters],0.066,0.059
HEC-G25 (Fc fusion) YGEGTFTSDYSIALDKKAQRDFIEWLLAQGPSSGAPPPSGGGGSGGGGSGGGGSA[here human IgG4 Fc with S228P F234A L235A (EU numbers) without letters],3.75,0.134
HEC-G127 (Fc fusion) YSEGTFTSDYSILLDKKAQRDFIEWLLAGGPSSGAPPPSGGGGSGGGGSGGGGSA[here human IgG4 Fc with S228P F234A L235A (EU numbers) without letters],0.477,0.042
HEC-G23 (Fc fusion) YGEGTFTSDYSIYLDKKAQRDFVEWLIAGGPSSGAPPPSGGGGSGGGGSGGGGSA[here human IgG4 Fc with S228P F234A L235A (EU numbers) without letters],0.054,0.301
HEC-G131 (Fc fusion) YSEGTFTSDYSILLDKIAQRDFVEWLIAGGPSSGAPPPSGGGGSGGGGSGGGGSA[here human IgG4 Fc with S228P F234A L235A (EU numbers) without letters],0.277,0.028
HEC-G01 (Fc fusion) YAEGTFTSDYSIYLDKQAAKEFVNWLLAGGPSSGAPPPSGGGGSGGGGSGGGGSA[here human IgG4 Fc with S228P F234A L235A (EU numbers) without letters],0.582,10.2
HEC-G11 (Fc fusion) YGEGTFTSDYSIALDKQRAKDFVQWLIAGGPSSGAPPPSGGGGSGGGGSGGGGSA[here human IgG4 Fc with S228P F234A L235A (EU numbers) without letters],0.497,11.2
HEC-G08 (Fc fusion) YGEGTFTSDYSIYLDKIAQKAFVQWLIAGGPSSGAPPPSGGGGSGGGGSGGGGSA[here human IgG4 Fc with S228P F234A L235A (EU numbers) without letters],1.58,15.8
HEC-G132 (Fc fusion) YGEGTFTSDYSILLDKIAQRDFVEWLIAGGPSSGAPPPSGGGGSGGGGSGGGGSA[here human IgG4 Fc with S228P F234A L235A (EU numbers) without letters],0.285,0.027
HEC-G21 (Fc fusion) YGEGTFTSDYSIYLDKKAQRDFVEWLKAGGPSSGAPPPSGGGGSGGGGSGGGGSA[here human IgG4 Fc with S228P F234A L235A (EU numbers) without letters],0.134,22.8
HEC-G135 (Fc fusion) YSEGTFTSDYSILLDKIAQQEFIEWLIAGGPSSGAPPPSGGGGSGGGGSGGGGSA[here human IgG4 Fc with S228P F234A L235A (EU numbers) without letters],1.27,0.033
HEC-G10 (Fc fusion) YGEGTFTSDYSIALDKQAAKAFVQWLIAGGPSSGAPPPSGGGGSGGGGSGGGGSA[here human IgG4 Fc with S228P F234A L235A (EU numbers) without letters],0.264,15.5
HEC-G20 (Fc fusion) YGEGTFTSDYSIYLDKKAQRDFVEWLLAGGPSSGAPPPSGGGGSGGGGSGGGGSA[here human IgG4 Fc with S228P F234A L235A (EU numbers) without letters],0.262,0.197
HEC-G128 (Fc fusion) YGEGTFTSDYSILLDKKAQRDFIEWLLAGGPSSGAPPPSGGGGSGGGGSGGGGSA[here human IgG4 Fc with S228P F234A L235A (EU numbers) without letters],0.394,0.112
HEC-G133 (Fc fusion) YSEGTFTSDYSILLDKIAQQDFVEWLLAGGPSSGAPPPSGGGGSGGGGSGGGGSA[here human IgG4 Fc with S228P F234A L235A (EU numbers) without letters],63.2,0.006
HEC-G134 (Fc fusion) YSEGTFTSDYSILLDKIAQQEFIEWLLAGGPSSGAPPPSGGGGSGGGGSGGGGSA[here human IgG4 Fc with S228P F234A L235A (EU numbers) without letters],16.3,0.004
HEC-G24 (Fc fusion) YGEGTFTSDYSIALDKKAQRDFVEWLLAQGPSSGAPPPSGGGGSGGGGSGGGGSA[here human IgG4 Fc with S228P F234A L235A (EU numbers) without letters],59.1,0.675
